Among all 310,000 compounds or so, about 14,000 (4.5%) showed an effect of 50% or more. The effect is printed as a negative number. Some of the results follow.
molecular target: human ether-à-go-go-related gene (hERG) potassium channel (human, UniProt Q12809); experiment: primary screen, population patch clamp on CHO cells stably expressing hERG
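Also: peak tail current of the secondary pulse compared with the same well before compound.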

human ether-à-go-go-related gene (hERG) potassium channel, sequence (Q12809 whole entry, looked up): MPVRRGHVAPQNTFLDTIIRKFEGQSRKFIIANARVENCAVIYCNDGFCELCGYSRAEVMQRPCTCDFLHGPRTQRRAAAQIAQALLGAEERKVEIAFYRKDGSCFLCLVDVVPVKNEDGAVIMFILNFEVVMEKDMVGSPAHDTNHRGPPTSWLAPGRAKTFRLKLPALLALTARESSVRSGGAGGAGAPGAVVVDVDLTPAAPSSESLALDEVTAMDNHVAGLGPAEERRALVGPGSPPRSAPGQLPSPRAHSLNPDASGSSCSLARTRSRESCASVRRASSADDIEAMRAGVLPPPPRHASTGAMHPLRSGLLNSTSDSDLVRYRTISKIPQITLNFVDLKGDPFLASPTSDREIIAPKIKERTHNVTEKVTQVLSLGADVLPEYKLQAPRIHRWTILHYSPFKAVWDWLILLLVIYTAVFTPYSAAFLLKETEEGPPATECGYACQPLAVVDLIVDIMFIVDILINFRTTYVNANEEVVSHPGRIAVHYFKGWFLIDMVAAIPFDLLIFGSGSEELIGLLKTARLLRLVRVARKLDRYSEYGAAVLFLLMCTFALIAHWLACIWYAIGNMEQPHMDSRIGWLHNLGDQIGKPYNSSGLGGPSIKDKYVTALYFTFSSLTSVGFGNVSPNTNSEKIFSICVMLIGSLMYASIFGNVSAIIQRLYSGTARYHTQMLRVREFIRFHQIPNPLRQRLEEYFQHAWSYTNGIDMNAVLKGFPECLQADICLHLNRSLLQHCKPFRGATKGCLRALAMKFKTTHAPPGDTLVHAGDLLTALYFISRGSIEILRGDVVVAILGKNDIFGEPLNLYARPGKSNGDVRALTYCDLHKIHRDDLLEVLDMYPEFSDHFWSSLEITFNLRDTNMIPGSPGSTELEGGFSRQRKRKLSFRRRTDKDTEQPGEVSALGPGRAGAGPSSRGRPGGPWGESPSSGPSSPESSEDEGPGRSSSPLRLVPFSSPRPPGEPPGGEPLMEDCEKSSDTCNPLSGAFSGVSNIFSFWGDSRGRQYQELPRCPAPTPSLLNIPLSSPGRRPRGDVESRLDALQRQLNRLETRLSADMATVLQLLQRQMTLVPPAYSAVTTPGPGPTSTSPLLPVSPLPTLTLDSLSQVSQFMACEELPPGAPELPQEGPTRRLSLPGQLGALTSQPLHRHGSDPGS

| SMILES | hERG current change (%, negative = inhibition) at 10uM [%] |
| --- | --- |
| Cc1ccc(-c2nnnn2C2C/C(=N\NC(N)=S)C3OCC2O3)cc1 (centres unmarked) | 13.4 |
| CCOC(=O)C1=C(O)/C(=C\c2ccc(OC)c(OC)c2)N=C1C | 10.5 |
| O=c1ccc2cc(S(=O)(=O)N3CCOCC3)ccc2o1 | 4.83 |
| COc1ccc(OCC(=O)N/N=C/c2cccc3cccnc23)cc1 | 12.8 |
| O=C(O)C(=O)O.O=C(c1ccc([N+](=O)[O-])cc1)N1CCN(Cc2ccccc2[N+](=O)[O-])CC1 | -75 |
| COc1cc(NC(=O)CN2C(=O)CN(C)C2=O)c(C)cc1[N+](=O)[O-] | 17.6 |
| Cc1nn(-c2ccccc2)c2sc(C(=O)OCn3nnc4ccccc4c3=O)cc12 | -1.28 |
| CC(OC(=O)c1cccnc1SCc1cc(=O)n2ccccc2n1)c1ccccn1 (centres unmarked) | -13.5 |
| COc1cccc(-n2c(C)nc3cc(C(=O)O)ccc32)c1 | -7.63 |
| CCOC(=O)c1c(NC(C)=O)sc(C(=O)NC2CCCC2)c1C | 23.7 |
| O=C(O)C1C(c2ccccc2)C(C(=O)Oc2ccc(O)cc2)C1c1ccccc1 (centres unmarked) | -2.67 |
| CN(C(=O)c1ccc(S(=O)(=O)N2CCCCC2)cc1)C1CCS(=O)(=O)C1 (centres unmarked) | -2.86 |
| CN(C(=O)c1cccs1)c1ccccc1C(=O)O | 5.89 |
| C=CCOc1cccc(C2C(C(=O)c3ccc(C)o3)=C(O)C(=O)N2CCCn2ccnc2)c1 (centres unmarked) | 9.13 |
| Cc1cc(C)n(-c2nc3c(c(=O)[nH]c(=O)n3C)n2CC(C)C)n1 | 4.52 |
| COc1ccc(N(CC(=O)NC2CC3CCC2C3)S(=O)(=O)c2ccc(C)cc2)cc1 (centres unmarked) | -22 |
| O=C(Cn1cnc2cc([N+](=O)[O-])ccc2c1=O)NC1CCS(=O)(=O)C1 (centres unmarked) | 41.9 |
| COCCCn1c(SCC(=O)Nc2nnc(C)s2)nnc1-c1ccoc1C | 4.33 |
| COc1ccc(N(CC(=O)NCCc2ccc(OC)c(OC)c2)S(=O)(=O)c2ccc(OC)c(OC)c2)cc1 | 5.38 |
| CCOc1ccc(-n2c(SCC(=O)NCc3ccco3)nc3c(c2=O)SCC3)cc1 | -0.971 |
| COc1c(S(=O)(=O)N2CCCCC2)ccc2c(S(=O)(=O)N3CCCCC3)cccc12 | -17.5 |
| O=C(C1=C[C@H](c2coc3ccccc3c2=O)C[C@H](OCCCCO)O1)N1CCN(Cc2ccc3c(c2)OCO3)CC1 | -64.4 |

| SMILES | hERG current change (%, negative = inhibition) at 10uM [%] |
| --- | --- |
| COCc1cc(C)nc(NCCc2ccccc2)c1C#N | -7.77 |
| CC(=O)Nc1ccc(S(=O)(=O)NCc2ccc(C(=O)NC(C)c3ccccc3)cc2)cc1 (centres unmarked) | -12.2 |
| O=C(NC(=S)N1C[C@H]2C[C@H](C1)c1cccc(=O)n1C2)c1ccc(Cl)cc1 | -8.28 |
| O=C(N/N=C/c1cccnc1)c1[nH]ncc1Br | 39.4 |
| CCN(C(=O)N(CC)c1ccccc1)c1ccccc1 | 13.1 |
| CCOc1ccc(-c2nc(N)ncc2Oc2cccc(OC)c2)c(O)c1 | 6.7 |
| CCOP(=O)(c1ccccc1)C(O)c1ccc(F)cc1 (centres unmarked) | 17.9 |
| Cc1c(C(=O)NCc2cccnc2)oc2ccc(S(=O)(=O)N3CCC4(CC3)OCCO4)cc12 | -3.87 |
| CCC1C(=O)NCCN1C(=O)c1cc(COc2cc(C)ccc2C)on1 (centres unmarked) | -43.7 |
| CCOC(=O)CSc1nnc(-c2cccnc2)n1Cc1ccccc1 | -14.5 |
| CCOc1ccc(-c2[nH]ncc2-c2ccc(Cl)cc2)c(O)c1 | 0.454 |
| Cc1ccc2[nH]c(=O)c(CC=C(Cl)Cl)c(C)c2c1 | 9.84 |
| Cc1ccc(/C=C(\C#N)C(=O)Nc2cccc(C)n2)cc1 | 12.6 |
| CCSC1(SCC)N=C(N)C2(C#N)C(c3ccccc3)NC(C)=CC12C#N (centres unmarked) | 19.8 |
| COCCN(CCOC)S(=O)(=O)c1ccc(/C(O)=C(\C#N)c2nc3ccccc3[nH]2)cc1 | 16 |
| O=C(CC1CCCCC1)OCn1nnc2ccccc2c1=O | -33.2 |
| Cc1cc(=O)[nH]c(/N=C(\N)Nc2cccc3ccccc23)n1 | 11.5 |
| COc1ccc(-c2cc(C(=O)NC(Cc3c[nH]c4ccccc34)C(=O)O)c(C)o2)cc1OC (centres unmarked) | 50.7 |
| CCOC(=O)C1CCN(S(=O)(=O)c2ccc(OC)c(C(=O)N3CCCCC3)c2)CC1 | 12.5 |
| Cc1cccc(NC(=S)N(CCCN2CCOCC2)C(C)c2cc3ccccc3o2)c1 (centres unmarked) | -38.8 |
| CCOC(=O)c1sc(NC(=O)COC(=O)CNC(=O)C2CCCCC2)c(C(=O)OCC)c1C | 12 |
| COCCCN1C(=O)C2C(C(=O)Nc3cc(C)cc(C)c3)C3C=CC2(O3)C1C(=O)NC1CCCCC1 (centres unmarked) | 1.58 |

| SMILES | hERG current change (%, negative = inhibition) at 10uM [%] |
| --- | --- |
| C/C(=N\NC(=O)c1ccccc1Cl)c1c(O)n(C2CCCCC2)c(=O)[nH]c1=O | 15.1 |
| O=S(=O)(Nc1nc(CN2CCOCC2)nc2sc3c(c12)CCCC3)c1cc(F)ccc1F | -34.9 |
| Cc1cc(=O)n2nc(-c3ccccc3)sc2c1C#N | -2.19 |
| COc1ccc(Cl)cc1NC(=O)CCNC(=O)Cn1ccc2ccccc2c1=O | 16.9 |
| COC(=O)CCSCc1cn2cc(Cl)ccc2n1 | 17.7 |
| CCOC(=O)C1(Cc2ccc(OC)cc2)CCN(C(=O)CN2CCCCC2=O)CC1 | 4.53 |
| COc1ccc(CCNC(=O)CC2SC(=Nc3cc(C)cc(C)c3)NC2=O)cc1OC (centres unmarked) | 24.2 |
| CCc1ccc(/C=N/NC(=O)c2cc(C)on2)s1 | -15.5 |
| COc1ccc(C2=NN(C(=O)CCC(=O)O)C(c3ccc(OC)c(OC)c3)C2)cc1 (centres unmarked) | 5.63 |
| O=C(CCC(=O)c1ccc(Oc2ccccc2)cc1)Nc1ccc(C(=O)O)cc1 | 21.8 |
| CCOC(=O)c1cn2nc(N3CCCC3)ccc2n1 | 1.32 |
| O=C(Nc1cccc(Cl)c1)c1cc(F)cc2c1OCOC2 | 13.4 |
| COc1cccc(Oc2c(C)oc3c(CN4CCCC4)c(O)ccc3c2=O)c1 | 2.05 |
| Cc1ccc(N2CCN(S(=O)(=O)c3ccc4c(c3)NC(=O)C(C)C(=O)N4)CC2C)cc1 (centres unmarked) | 11.7 |
| COc1cccc(C(c2nnnn2CCc2ccccc2)N2CCN(c3ccccc3)CC2)c1OC (centres unmarked) | -1.31 |
| COc1ccc(/C=N/NC(=O)c2cc(C34CC5CC(CC(C5)C3)C4)[nH]n2)cc1O | 2.14 |
| COc1cccc(NC(=O)c2ccc(OC(F)(F)F)cc2)c1 | 1.07 |
| CCOc1ccc(C2C=C(c3ccccc3)Nc3nnnn32)cc1 (centres unmarked) | 14.4 |
| Cc1ccc2[nH]cc(CCNC(=O)Nc3ccccc3)c2c1 | -16.9 |
| CS(=O)c1ccccc1COC(=O)Nc1ccc(Cl)cc1 (centres unmarked) | -11.5 |
| CCCn1nc(C(=O)Nc2ccc3c(c2)OCCO3)c2ccccc2c1=O | -7.37 |
| CCOC(=O)c1cc(C)[nH]c1C | 6.1 |

| SMILES | hERG current change (%, negative = inhibition) at 10uM [%] |
| --- | --- |
| CC(C)CN(C(=O)CSc1nnc(-c2ccco2)o1)c1c(N)n(Cc2ccccc2)c(=O)[nH]c1=O | 14.4 |
| CC1=Nc2ccccc2/C1=C/c1nc(-c2ccc(C)s2)oc1O | 16.5 |
| CCOc1ccc2nc(Cl)c(CN(C(=O)c3cnccn3)C3CCCC3)cc2c1 | -10.5 |
| C=CCOC(=O)C1=C(C)NC(=O)NC1c1ccc(N(C)C)cc1 (centres unmarked) | 3.34 |
| Cc1ccccc1OCC(=O)N/N=C/c1ccccn1 | 11.3 |
| COc1cccc2sc(=NC(=O)CS(=O)(=O)c3ccc(Cl)cc3)n(C)c12 | -60.8 |
| NC(=S)NNc1ccnc2cc(Cl)ccc12 | 5.52 |
| Fc1ccccc1CN1CCN(c2ncccn2)CC1 | 5.66 |
| COC(=O)C1CCN(C(=O)NC(C)(C)C)CC1 | 11.2 |
| CC(C)C(NC(=O)c1ccc(F)cc1)C(=O)OCC(=O)N1CC(=O)Nc2ccccc21 (centres unmarked) | -14.9 |
| COc1ccc(Nc2nc(NC(C)(C)C)nc(N3CCCC3)n2)c(OC)c1 | 14 |
| O=C(O)[C@@H]1C[C@H]1[C@@H](NP(=O)(c1ccccc1)c1ccccc1)c1ccccc1 | 2.04 |
| CCOC(=O)c1cc2sc(C)cc2n1CC(=O)N1CCN(C(=O)c2ccco2)CC1 | -8.61 |
| CCCc1cc(=O)oc2cc(C)c(CN3CCCC3)c(O)c12 | -8.21 |
| COc1cccc(C2CC(c3ccc(Cl)cc3)n3nc(N)nc3N2)c1 (centres unmarked) | -6.36 |
| Cc1nnc(SCC2=C(C(=O)[O-])N3C(=O)[C@@H](NC(=O)Cn4cnnn4)[C@H]3SC2)s1.[Na+] | 15.9 |
| COC(=O)C(Cc1c[nH]c2ccccc12)NC(=O)C(=O)c1c[nH]c2ccccc12 (centres unmarked) | -14.9 |
| CCOC(=O)c1[nH]nc(C(=O)c2ccc(Br)cc2)c1O | 7.67 |
| O=C(Nc1cccc(C(=O)N2CCCC2)c1)c1ccccc1 | 2.2 |
| COc1ccc(NC(=S)N2CCC(N(C)CCN3CCOCC3)CC2)cc1 | -1.98 |

Source: paper PMC4336329 (PLoS ONE, 2015)
